Assay results as given in PubChem BioAssay AID488969 (Vanderbilt High Throughput Screening Facility, 2010).
Over roughly 110,000 compounds, “z-score” has its median near -0.1; the highest 2% begin near 2. This is one part of the list.

The molecules below were run against Metabotropic glutamate receptor 8 (Rattus norvegicus) (UniProt P70579) (assay: mGluR8 Gi/Go-coupled signaling modulation – cell-based, rat, thallium flux, HTS, primary screen (AID 488969)). Settings: HEK293 rat mGluR8, GIRK (G protein-gated inwardly rectifying potassium channel) thallium flux, FluoZin2; at 10 µM; stronger effect = higher value; submaximal glutamate (EC20) added with thallium.
Chain of UniProt P70579 (P70579 whole entry, looked up): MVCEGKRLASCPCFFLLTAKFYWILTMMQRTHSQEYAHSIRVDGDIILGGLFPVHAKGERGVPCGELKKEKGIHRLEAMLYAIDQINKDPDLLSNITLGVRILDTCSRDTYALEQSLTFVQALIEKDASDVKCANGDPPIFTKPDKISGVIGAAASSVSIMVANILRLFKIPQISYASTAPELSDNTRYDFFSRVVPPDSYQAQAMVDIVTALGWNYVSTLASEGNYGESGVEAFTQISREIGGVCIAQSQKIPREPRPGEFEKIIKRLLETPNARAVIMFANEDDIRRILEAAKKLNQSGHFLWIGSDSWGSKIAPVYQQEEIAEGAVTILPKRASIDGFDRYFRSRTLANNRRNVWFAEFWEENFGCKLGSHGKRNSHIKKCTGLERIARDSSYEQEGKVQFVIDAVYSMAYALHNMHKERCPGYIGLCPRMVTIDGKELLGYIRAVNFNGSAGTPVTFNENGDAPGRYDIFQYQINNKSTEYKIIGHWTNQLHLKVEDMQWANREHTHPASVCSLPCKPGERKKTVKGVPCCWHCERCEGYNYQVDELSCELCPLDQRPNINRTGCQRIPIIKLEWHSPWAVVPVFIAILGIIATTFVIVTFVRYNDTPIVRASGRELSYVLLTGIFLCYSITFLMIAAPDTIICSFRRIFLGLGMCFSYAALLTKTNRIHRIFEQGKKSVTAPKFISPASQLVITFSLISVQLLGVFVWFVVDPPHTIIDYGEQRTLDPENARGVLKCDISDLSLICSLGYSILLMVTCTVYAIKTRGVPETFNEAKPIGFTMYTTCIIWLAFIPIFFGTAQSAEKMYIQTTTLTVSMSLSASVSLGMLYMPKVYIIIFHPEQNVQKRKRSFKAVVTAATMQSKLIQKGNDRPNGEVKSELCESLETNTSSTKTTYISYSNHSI

Row | SMILES | z-score
1 | O=C(c1ccco1)N1CCN(S(=O)(=O)c2ccc(S(=O)(=O)NC3CC3)cc2)CC1 | -0.31
2 | O=C1c2ccccc2C(=O)c2c1cccc2N1CCN(CCO)CC1 | -0.119
3 | COC(=O)c1c(NC(=O)CCCC(=O)O)sc2c1CCC2 | -0.046
4 | O=C(CCCc1ccccc1)Nc1cccc2c1CCCC2 | -0.0829
5 | Cn1c(=O)c(=O)n(C)c2cc(S(=O)(=O)CCC(=O)N3CCOCC3)ccc21 | 0.0626
6 | Cc1ccc2occ(/C=N/O)c(=O)c2c1 | -0.606
7 | CN(C)Cc1ccccc1Cc1ccccc1 | -0.0119
8 | Cc1cc(C)c(NC(=O)CSc2nc3c(c(=O)n2C)SC(C)C3)c(C)c1 (stereo unspecified) | -0.745
9 | COC(=O)c1ccc(Cc2ccccc2)o1 | 0.148
10 | CN(C)c1nc(SCCOC(=O)c2ccccc2)nc(N(C)C)n1 | -0.235
11 | CCOc1cccc(OCCOCCNC(C)(C)C)c1 | 0.278
12 | O=C(CSc1nnc(Cn2nnc3ccccc32)o1)Nc1ccc(Cl)cc1 | -0.0906
13 | CC(=O)CC(=O)Nc1ccccc1NC(C)=O | -0.363
14 | Cc1sc(N)c(C#N)c1C | -0.149
15 | CC1(C)NC(=O)N(CCOCCOc2cccc(Oc3ccccc3)c2)C1=O | -0.263
16 | CCOC(=O)c1cnc(SCC(=O)Nc2cc(OC)cc(OC)c2)nc1N | 0.341
17 | Cc1cc(C)cc(OCC(=O)N/N=C/c2ccncc2)c1 | -0.147
18 | COc1ccc(CCNC(=O)C2CCCN(Cc3nc(-c4cccc(Cl)c4)oc3C)C2)cc1OC (stereo unspecified) | 1.07
19 | CC(C)Nc1ncnc2c1cnn2-c1ccccc1 | -0.303
20 | O=C(CSc1nc2ccccc2c(=O)n1C1CC1)NCc1ccccc1 | -0.35
21 | Cc1ccc(SCC(=O)N2CCc3ccccc32)cc1 | -0.216
22 | CCCOc1ccccc1-c1nc(SCCC(=O)O)n[nH]1 | -1.73
23 | COc1ccc(C)cc1-n1nnnc1SCC(=O)NC(=O)NCc1ccco1 | -0.65
24 | N#CC1(Cc2ccccc2)c2ccccc2C=CN1C(=O)c1ccccc1 (stereo unspecified) | -0.211

Row | SMILES | z-score
25 | CCOC(=O)C1CCN(C(=O)COc2ccc(Cl)cc2C)CC1 | -0.0831
26 | CCOC(=O)c1cc2n(n1)C(C(F)(F)F)CC(C)N2 (stereo unspecified) | 0.117
27 | CCc1cc2cc(C(=O)Nc3ccc(F)cc3)sc2s1 | -0.0494
28 | Cc1cc(NC(=O)c2ccccc2Cl)c(C(C)C)cc1O | -0.112
29 | O=c1[nH]nc(Cc2ccc(Cl)cc2Cl)c2ccccc12 | -0.341
30 | CN1CCN(c2nc(-c3ccccc3)c3cc(Cl)ccc3n2)CC1 | -0.517
31 | CCN(CC)c1ccc(/C=c2/sc3nnc(-c4ccccc4C)n3c2=O)cc1 | -0.244
32 | O=[N+]([O-])c1ccc(NC(=S)NCCc2ccccc2)cc1 | 2.91
33 | CCCCNC(=O)Nc1ccccc1C(=O)Nc1ccc(OC)cc1 | 0.159
34 | COCc1cc(=O)n2[nH]c(-c3ccsc3-n3c(C)ccc3C)cc2n1 | 0.922
35 | COCCN(Cc1cc2cc3c(cc2[nH]c1=O)OCO3)C(=O)c1cccs1 | -0.16
36 | O=C(Cn1nc(C(F)(F)F)cc1C1CC1)Nc1ccccc1F | -0.173
37 | CCc1cccc(CC)c1NC(=O)COC(=O)c1ccc2c(c1)S(=O)(=O)c1ccccc1C2=O | -0.326
38 | Cc1cc(Cl)c(S(=O)(=O)NCc2ccccc2)cc1OCC(N)=O | -0.00164
39 | Cc1nn(CC(O)Cn2c3c(c4ccccc42)CCN(C)C3=O)c(C)c1Br (stereo unspecified) | -0.0185
40 | Cc1cc(F)ccc1NCC(=O)Nc1ccc(Br)cc1C | -0.568
41 | CCC(=O)Nc1c(C(=O)Nc2cccc(OC)c2)oc2ccccc12 | -0.158
42 | CCOC(=O)C1CCN(C(=O)Cc2ccc(OC)c(OC)c2)CC1 | -0.0395
43 | Cc1cc(C)c(NC(=O)c2ccc(S(=O)(=O)N3CCOCC3)cc2)c(C)c1 | 0.0702
44 | Oc1cccc(/C=N/Nc2ncnc3c2ncn3Cc2ccccc2)c1 | -0.119
45 | O=C(NCc1ccc(OC(F)(F)F)cc1)C1CC(c2c(Cl)cccc2Cl)=NO1 (stereo unspecified) | -0.0614
46 | COC(=O)C1=C(N)Oc2cc(C)n(CCN3CCOCC3)c(=O)c2C1c1cccnc1 (stereo unspecified) | 0.0516
47 | C=CCn1c(SCc2c(C(=O)OC)sc(N)c2C(=O)OC)nnc1-c1ccc(Cl)cc1 | -0.846
48 | Cc1cccc(NC(=S)N(CCCN2CCOCC2)Cc2ccccn2)c1 | 0.37

Row | SMILES | z-score
49 | NC(=O)CSc1nnnn1CC(CC(=O)O)c1ccccc1 (stereo unspecified) | 0.894
50 | Cc1ccc2nc(C(O)C(O)c3nc4ccc(C)cc4[nH]3)[nH]c2c1 (stereo unspecified) | -0.307
51 | CC1Sc2ccccc2N(CC(=O)N(C(C)C)C(C)C)C1=O (stereo unspecified) | 0.406
52 | CCN1CCN(C(=O)CN(Cc2ccccc2)S(C)(=O)=O)CC1 | 0.371
53 | O=C(/C=C/c1ccc(Cl)cc1)c1cccnc1 | 0.357
54 | COc1ccc(C)cc1NC(=O)CSc1nnnn1Cc1ccccc1 | -0.544
55 | Cc1cccc(C(C)(C)C)c1OCCCCN1CCCC1 | 2.48
56 | O=C1Nc2ccc(S(=O)(=O)N3CCCCCC3)c3cccc1c23 | -0.375
57 | COc1ccccc1CNC(=O)C(NS(=O)(=O)c1ccc2c(c1)oc(=O)n2C)C(C)C (stereo unspecified) | 0.236
58 | CCS(=O)(=O)Nc1ccc(C2=NN(S(=O)(=O)c3ccc(F)cc3)C(c3ccco3)C2)cc1 (stereo unspecified) | 0.14
59 | COc1cc(-c2nc(-c3ccncc3)no2)cc(OC)c1OC | -0.0284
60 | Cc1cccc(OCC(=O)NCCN2CCOCC2)c1 | -0.218
61 | O=S1(=O)CC(O)C(N2CCCCC2)C1 (stereo unspecified) | 0.12
62 | Cn1cc(-c2nc3ccccc3[nH]2)c2ccccc21 | -1.41
63 | CCCc1nc(SCC(=O)Nc2cc(Cl)ccc2OC)c2c(=O)n(C)c(=O)n(C)c2n1 | 0.111
64 | CCOc1ccc(NS(=O)(=O)c2ccc(SC)cc2)cc1 | -0.406
65 | Clc1ccc(-c2nc3ccccn3c2CN2CCOCC2)cc1 | -0.131
66 | Cc1ccccc1C(=O)Nc1c(C(=O)N2CCCC2)cnn1-c1ccccc1 | 0.78
67 | Fc1cccc(Cl)c1CSc1nnc(COc2cccc3cccnc23)o1 | -0.675
68 | CCc1nnc(NC(=O)CSc2nc3ccccc3s2)s1 | -0.228
69 | Brc1c(CSc2nc3ccccc3o2)nc2ncccn12 | 0.922
70 | COCCNC(=S)N/N=C(\C)c1cccc([N+](=O)[O-])c1 | -0.0589
71 | CCCCOc1c(Br)cc(/C=N/O)cc1OCC | 2.8
72 | COc1cc(C(=O)Nc2nc3ccc4nc(C)sc4c3s2)cc(OC)c1OC | 0.0225

Row | SMILES | z-score
73 | N#CC1=C(N)C(C#N)(C#N)C(c2cccnc2)C2CC(c3ccccc3)CC=C12 (stereo unspecified) | -2.19
74 | CCOC(=O)N1CCN(C(=O)CCSc2ccc(C)cc2)CC1 | 0.222
75 | CC(=O)Nc1ccc(S(=O)(=O)Nc2nc3ccccc3nc2Sc2nncn2C)cc1 | 0.338
76 | CCn1c(C)nc2cc(C(=O)OC(C(F)(F)C(F)F)C(F)(F)C(F)F)ccc21 | 0.0729
77 | O=C(COC(=O)Cc1ccsc1)NCc1ccc(Cl)cc1 | -0.335
78 | Cc1ccc(-n2c(-c3ccccc3)n[nH]c2=S)cc1 | 0.357
79 | O=C(NC1CCCCC1)c1ccccc1NC(=O)C1CC1 | 0.156
80 | CCc1c(C)nc2ncnn2c1NCc1cccs1 | -0.291
81 | O=C(Cn1c(NCCCO)nc2ccccc21)c1ccc(Br)cc1 | -0.528
82 | CCOc1nc(C)ccc1-c1noc(-c2ccncc2)n1 | 0.775
83 | Cn1c(CN2CCCC2)nc2cc(NC(=O)c3ccco3)ccc21 | 0.286
84 | CCCc1nn(C)c(C(=O)Nc2ccc(C(C)(C)C)cc2)c1Cl | -0.136
85 | CCOCCn1c(=NC(=O)/C=C/c2ccccc2Cl)sc2cc(NC(C)=O)ccc21 | 0.0288
86 | COCC(=O)Nc1nc2ccccc2s1 | 0.294
87 | CSc1oc(-c2ccco2)nc1S(=O)(=O)c1ccccc1 | 0.155
88 | Cc1nnc(SCc2ccc(CC(=O)O)cc2)o1 | -0.59
89 | CCC(C)NC(=O)Cn1c(COc2ccc(Cl)cc2Cl)nc2ccccc21 (stereo unspecified) | -2.32
90 | CCC1CCCCN1S(=O)(=O)c1ccc(C(=O)Nc2nnc(-c3cccs3)o2)cc1 (stereo unspecified) | 0.233
91 | Cc1ccc(Cl)cc1N1CCN(C(=O)c2cn(C)c(=O)c3c2c2ccccc2n3C)CC1 | 0.0829
92 | Cc1c(Cl)cccc1NC(=S)N1CCN(Cc2ccc3c(c2)OCO3)CC1 | 0.334
93 | COC(C)(C)c1cc(C(C)(C)C)nc(N)n1 | 0.189
94 | COC(=O)c1ccccc1NC(=O)COc1ccc(S(=O)(=O)N2CCCC2)cc1C | -0.752
95 | CCOC(=O)c1cc2c(=O)n3ccccc3nc2n(C(C)C)c1=NC(=O)c1c(-c2c(F)cccc2Cl)noc1C | 0.205
96 | CC1CCCCC1NC(=O)COC(=O)COc1ccc(Cl)cc1 (stereo unspecified) | -0.238

Row | SMILES | z-score
97 | Cc1cc2cc3c(cc2nc1SCc1ccccn1)OCCO3 | 0.0708
98 | Cc1ccc(S(=O)(=O)C2(C(=O)N3CCCC(C)C3)CC2)cc1 (stereo unspecified) | -0.0386
99 | COc1ccc(Cl)cc1-c1nc(-c2ccncc2)no1 | 0.768
100 | CCCCCn1c(CN2CCN(C(=O)OCC)CC2)nc2c1c(=O)[nH]c(=O)n2C | 0.29
101 | O=C(NCCSc1ccc(Cl)cc1)c1ccco1 | -0.0895
102 | O=C(NC1CCCCCCC1)c1ccccc1O | 0.244
103 | CC1CC(=O)Nc2ccccc2N1S(=O)(=O)c1ccc(Br)cc1 (stereo unspecified) | -0.323
104 | CC(=O)c1ccc2cccc3c2c1N=CN3C | -0.158
105 | Cc1ccc(-c2cc(C(=O)NCCN3CCOCC3)no2)cc1 | -0.195
106 | CCn1c(O)c(C=Nc2ccccc2)n(-c2ccccc2)c1=S | -0.533
107 | O=C(NCCC1=CCCCC1)C1CCCN(S(=O)(=O)c2cnc[nH]2)C1 (stereo unspecified) | 1.49
108 | CCOC(=O)c1sc(NC(=O)c2ccc(CC)s2)nc1C | -0.469
109 | CCC(CC)C(=O)NCCNC(=O)C(CC)CC | 0.00489
110 | COc1ccccc1NC(=O)CSc1nnc(-c2ccncc2)n1CC1CCCO1 (stereo unspecified) | -0.345
111 | CCCc1nccn1S(=O)(=O)c1cc(OC)ccc1OC | 0.149
112 | CCOc1cccc2cc(C(=O)Nc3cc(C)on3)c(=O)oc12 | -0.339
113 | N#Cc1c(-c2ccccc2)nc(SCc2nc(N)nc(N3CCCCC3)n2)[nH]c1=O | -0.874
114 | Cc1ccc(NC(=O)Cc2nnc(SCC(=O)c3ccc(Br)cc3)n2C)cc1Cl | 0.859
115 | Cc1cccn2c(=O)c(C=NCc3ccco3)c(Nc3ccc(SC(F)F)cc3)nc12 | -0.136
116 | CC(C)(C)c1ccccc1OCCCCN1CCCC1 | 2.06
